# Reference: the supplement of paper PMC11417369
# ± gives the standard deviation of the averaged measurements. Some of the results follow.
# System: PfAP2-EXP AP2 domain (GST-tagged)
# Assay: gcPBM binding intensity (ln(normalized median fluorescence intensity)); higher = stronger DNA binding
# How it was run: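 An Agilent 4 × 180k array carrying primer-extended double-stranded 36-bp intergenic genomic probes and negative controls received GST-tagged P. falciparum DNA-binding domains expressed in E. coli, about 25 μg on average, for 1 h. The binding buffer contained 1× PBS, 1% milk, 0.2 mg/ml BSA, 0.5% salmon testes DNA and 0.03% Triton X-100. Binding intensity is the top Masliner-normalised natural-log median intensity across replicate spots of either probe orientation, read after Alexa488 anti-GST antibody staining and a 488 nm scan.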
row,Sequence,gcPBM binding intensity (ln)
1,AAAGAAAATTAAAAAGAACACACAAATATATATATA [CACACA_site9196],9.82 ± 0.29
2,AATAATCATGATCATAGTACGTATGAATACAAAAAA [XGTACX_site265],8.67 ± 0.44
3,ATAAAACAAAGACACACACACATACACAAAAAAAAA [CACACA_site7752],8.55 ± 0.67
4,TATCTACTTAAATAAAATAAAAATAATAAATAAAAA [TGCATGCA_negctrl_site312],8.37 ± 0.3
5,CGTATGTATATATATATACACACTTCTGTGATACGA [CACACA_site1949],8.53 ± 0.32
6,ACATTATGTCATAAATGTACACATACATATACATAC [XGTACX_site8998],8.63 ± 0.32
7,TTTTATTTATTCCTACTTTTTTATTTATTTATTTAA [XGTACX_negctrl_site415],8.59 ± 0.41
8,ATGTATAATATTTTCACACACAAGAAAAAAGAAAAG [CACACA_site3591],8.84 ± 0.4
9,AAATGAATTTAACAATGTACACATATATTATAAATA [XGTACX_site1449],8.28 ± 0.31
10,AAAACGATTTTTTGCACACACATAATAAGCAGAACA [CACACA_site3871],8.97 ± 0.33
11,TACATAATAATAAGGCGTACATAAAAATTAAAAATT [XGTACX_site8769],8.79 ± 0.42
12,ATATACATTCTATATACATGCATACTTCATTTTGTG [TGCATGCA_site966],9.13 ± 0.72
13,TAAGTCAAAACTTTTTTTTCTAAATTTCCATAATTA [GTGCAC_negctrl_site29],8.03 ± 0.46
14,ATATATATATGTATATGTACTCATTCTTCTGTGTTT [XGTACX_site5014],9.71 ± 0.42
15,AAACAATTTAGACATACACACAAAAATAATATTATA [CACACA_site384],8.77 ± 0.28
16,ATTAAAAAAAAGCTCATCGAAATGTCTTATATAAAT [CACACA_negctrl_site912],8.72 ± 0.47
17,ATATATATATATATATGTACATATTGTATTATTCAC [XGTACX_site6511],10.2 ± 0.32
18,CACGAAAATTTGTAGAGTACATATATAATTAATATA [XGTACX_site3808],8.54 ± 0.43
19,CAATTAAACAATTAAACATGCAAAATGATATAATAA [TGCATGCA_site240],8.65 ± 0.38
20,AAAAAAAAATAGAAATGTACAAATTGTAATAATTCC [XGTACX_site6182],8.57 ± 0.35
21,CATATGATATTATTTTGTACTTATTACAAATATGAA [XGTACX_site7929],8.4 ± 0.42
22,TATAATAATATTTATTGTACGATTAGATTAATTCAT [XGTACX_site612],8.3 ± 0.61
23,GAGCATTACACATATACACACATATATATAAACATA [CACACA_site5515],8.66 ± 0.36
24,ATATATATATATATTTGTACATAATATATATATGCA [XGTACX_site1795],9.99 ± 0.2
